Screen size: about 52,000 compounds; about 4,300 (8.3%) were called active. Rule as the data show it: active = survival mostly below about 52% (no sharp cut-off); inactive = mostly above about 56%. The list shows a part of the results.
Tested on: DeltatarO mutant
Assay: growth inhibition of S. aureus wild type versus tarO mutant, primary screen, teichoic acid synthesis inhibitors, RN4220, OD600 (AID 463173)
Details: OD600, 18 h, stronger effect = lower value, screened at 18.75 µg/mL (by protocol)

| Structure (SMILES) | survival |
| --- | --- |
| Cc1ccc(S(=O)(=O)c2nc(-c3ccco3)oc2SC(C)C)cc1 | inactive: 47% |
| C=CCSc1nsc(N)n1 | inactive: 75% |
| Cc1cc(=O)n(Cc2cccc(Br)c2)c2c1c(C)nn2-c1ccccc1 | inactive: 95% |
| Cc1cc(Cl)ccc1NS(=O)(=O)c1ccc2c(c1)CCN2S(C)(=O)=O | inactive: 96% |
| Cc1cccc(CNC(=O)Cc2csc3ccccc23)c1 | inactive: 111% |
| CCOc1cc(/C=C2\SC(=S)N(CCCC(=O)O)C2=O)ccc1O | inactive: 62% |
| COc1ccc(S(=O)(=O)N2CCN(Cc3nc4ccc(C)cc4o3)CC2)cc1OC | inactive: 84% |
| CCOC(=O)C1CCN(c2cc3c(cc2NC(=O)c2ccc(OC)c(OC)c2)n(C)c(=O)n3C)CC1 | inactive: 58% |
| CC1CCCCN1S(=O)(=O)c1ccc(F)c(C(=O)Nc2ccccc2C(F)(F)F)c1 (stereo unspecified) | inactive: 89% |
| CCCNC(=O)NC1CC(C)(C)NC(C)(C)C1 | inactive: 80% |
| CCC(C)NC(=O)Cn1c(=O)n(CCCC(=O)NCc2ccc(C)cc2)c(=O)c2ccccc21 (stereo unspecified) | inactive: 94% |
| Cc1cn2c(=O)cc(COc3cc(C)c(Cl)c(C)c3)nc2s1 | inactive: 141% |
| CCCOC(=O)c1cc(=O)[nH]c2ccccc12 | inactive: 74% |
| Cc1ccc(NC(=O)CSc2nc3c(oc4ccccc43)c(=O)n2Cc2ccco2)cc1 | inactive: 70% |
| CCCn1c(=O)c2sccc2n2c(CCCC(=O)N3CCN(c4cccc(C)c4C)CC3)nnc12 | inactive: 78% |
| CCc1ccccc1NC(=O)C1COc2ccccc2C1 (stereo unspecified) | inactive: 92% |
| Cn1cnc(S(=O)(=O)N2CCC(C(=O)N3CCN(c4ccc(Cl)cc4)CC3)CC2)c1 | active: 37% |
| N#C/C(=C\c1ccccc1)C(=O)Nc1sc2c(c1C(N)=O)CCC2 | inactive: 59% |
| CC(C)Oc1ccc(CNC(=O)c2cnc3sc(N4CCCCC4)nn3c2=O)cc1 | inactive: 124% |
| COc1cc2c(-c3ccc(C)cc3)nc3c(c(C)nn3-c3ccccc3)c2cc1OC | inactive: 72% |
| Cc1cc(C)cc(OCC(=O)Nc2ccc(Cl)c(-c3nc4ncccc4o3)c2)c1 | inactive: 94% |
| CCc1ccc(Sc2cc(C(=O)NCCCOC(C)C)c3ccccc3n2)cc1 | inactive: 76% |
| CC(=O)Nc1ccc(-n2c(CCC(=O)O)ccc2-c2ccc(C)cc2)cc1 | inactive: 56% |
| O=C(Cc1cccs1)NC1CCN(Cc2ccccc2)CC1 | inactive: 86% |
| CCc1ccc(-c2cn3c(n2)sc2cc(C(=O)NCC(C)c4ccccc4)ccc23)cc1 (stereo unspecified) | inactive: 69% |
| Cc1nc2c(C(=O)NCCc3ccc(Cl)cc3)c[nH]n2c(=O)c1Cc1ccccc1F | active: -12% |
